{"source": "paper PMC10668032", "note": "Some of the results follow. At the low end of the ranking the order means little.", "data": [{"biological_target": "SIX1-Q177R homeodomain (UniProt Q15475)", "test": "universal protein binding microarray", "conditions": "Universal all-10-mer PBM (8x60K, AMADID 030236), 300 nM GST-tagged protein, Alexa Fluor 488 anti-GST; buffer, salt, pH and temperature not stated; high values mean tight binding; most listed sequences are background and not binding sites; double strand, one strand shown", "units": {"binding signal": "E-score"}, "values": [{"sequence": "AGGCACAG", "binding signal": -0.282}, {"sequence": "CAGTTATA", "binding signal": -0.0411}, {"sequence": "GAGACGGC", "binding signal": -0.232}, {"sequence": "ATCCTATG", "binding signal": -0.0642}, {"sequence": "CAGCAATG", "binding signal": -0.03}, {"sequence": "AGGGCAAC", "binding signal": -0.0606}, {"sequence": "CTCCAACC", "binding signal": 0.0708}, {"sequence": "ATCCCCGG", "binding signal": 0.174}, {"sequence": "ATACGGGC", "binding signal": -0.0639}, {"sequence": "AAAAACTT", "binding signal": -0.282}, {"sequence": "AGTGCTTA", "binding signal": -0.0939}, {"sequence": "AAAATAAG", "binding signal": -0.163}, {"sequence": "AGTGTTAG", "binding signal": 0.394}, {"sequence": "TATTAGCA", "binding signal": 0.074}, {"sequence": "AGACGCGG", "binding signal": 0.0452}, {"sequence": "CTGTTTAC", "binding signal": -0.0823}, {"sequence": "TTCCGAAA", "binding signal": -0.15}, {"sequence": "ACCATAGG", "binding signal": 0.0594}, {"sequence": "AAAACTAG", "binding signal": -0.0471}, {"sequence": "ATAGGATA", "binding signal": 0.122}, {"sequence": "CTCGACTC", "binding signal": 0.1}, {"sequence": "AGTATGGC", "binding signal": -0.0453}, {"sequence": "AGCTGTGA", "binding signal": -0.0533}, {"sequence": "AATCATTC", "binding signal": -0.217}, {"sequence": "ATGTTTCA", "binding signal": -0.303}, {"sequence": "ATCGGAAT", "binding signal": -0.116}, {"sequence": "CTTACTAC", "binding signal": -0.0879}, {"sequence": "ACTCTAGC", "binding signal": 0.0247}, {"sequence": "AAATGTTC", "binding signal": -0.151}, {"sequence": "TACTTCCA", "binding signal": -0.101}, {"sequence": "ATTTCAAA", "binding signal": -0.205}, {"sequence": "CTGCCGGA", "binding signal": -0.234}, {"sequence": "CACGTGAG", "binding signal": 0.033}, {"sequence": "CGAATGAC", "binding signal": 0.198}, {"sequence": "GACAGACC", "binding signal": -0.0795}, {"sequence": "GTCCGACA", "binding signal": 0.217}, {"sequence": "ACTCCAAA", "binding signal": 0.0954}, {"sequence": "ATTTCGGA", "binding signal": -0.224}, {"sequence": "CGGGTGCA", "binding signal": 0.238}, {"sequence": "GGGTATTA", "binding signal": 0.161}, {"sequence": "AACCTCGC", "binding signal": -0.084}, {"sequence": "CTTGGTAA", "binding signal": 0.0759}, {"sequence": "CTGTCCTC", "binding signal": -0.136}, {"sequence": "TGGTTGAA", "binding signal": -0.0727}, {"sequence": "ATCCATAA", "binding signal": -0.0611}, {"sequence": "ATGTTTAC", "binding signal": 0.0247}, {"sequence": "CTGTGCCA", "binding signal": -0.0907}, {"sequence": "CTGGGTTA", "binding signal": 0.0728}, {"sequence": "CCAAGAGA", "binding signal": 0.0328}, {"sequence": "GGCAAGTA", "binding signal": -0.0555}, {"sequence": "ACGCTTAC", "binding signal": 0.0323}, {"sequence": "GTGTCACA", "binding signal": 0.462}, {"sequence": "AGAGCGAG", "binding signal": -0.144}, {"sequence": "GGGTACCC", "binding signal": 0.234}, {"sequence": "GTGTGGTA", "binding signal": 0.265}, {"sequence": "CTTCCTGA", "binding signal": -0.194}, {"sequence": "GAAGTCTC", "binding signal": -0.341}, {"sequence": "AGGCTCAC", "binding signal": -0.0358}, {"sequence": "CTTAGGAA", "binding signal": 0.0513}, {"sequence": "CGGCCCCC", "binding signal": -0.0815}, {"sequence": "CGTGCATC", "binding signal": 0.0284}, {"sequence": "AATGAACT", "binding signal": -0.206}, {"sequence": "CAAATCGG", "binding signal": -0.0862}, {"sequence": "ATCATATA", "binding signal": -0.0383}, {"sequence": "CGCCCTTA", "binding signal": -0.155}, {"sequence": "AAGACACA", "binding signal": 0.174}, {"sequence": "GGGTGCCA", "binding signal": 0.2}, {"sequence": "CTATTTCC", "binding signal": -0.148}, {"sequence": "GATAGGGC", "binding signal": -0.27}, {"sequence": "ATCCGACG", "binding signal": 0.0169}, {"sequence": "AGAATTGC", "binding signal": -0.242}, {"sequence": "ACCGGTGG", "binding signal": -0.00441}, {"sequence": "ATGACGGC", "binding signal": -0.316}, {"sequence": "GGTAGTGA", "binding signal": 0.103}, {"sequence": "GGAAGGAA", "binding signal": -0.0414}, {"sequence": "AGGCAACT", "binding signal": -0.151}, {"sequence": "TATCGATA", "binding signal": -0.0766}, {"sequence": "GCCTCCGC", "binding signal": 0.0572}, {"sequence": "ATGTGCGA", "binding signal": -0.233}, {"sequence": "CCATATGG", "binding signal": 0.0864}, {"sequence": "CCCGCAAA", "binding signal": 0.0408}, {"sequence": "CGGCTATA", "binding signal": -0.168}, {"sequence": "ATCGGACA", "binding signal": 0.0788}, {"sequence": "CGGGTTCA", "binding signal": 0.175}, {"sequence": "AGCAAGGG", "binding signal": 0.0229}, {"sequence": "CACTCACC", "binding signal": 0.242}, {"sequence": "TATTTTGA", "binding signal": -0.0961}, {"sequence": "GACACGGC", "binding signal": 0.427}, {"sequence": "CTAGTACA", "binding signal": 0.245}, {"sequence": "ACAGTCCG", "binding signal": -0.202}, {"sequence": "AGCTAGCA", "binding signal": -0.0665}, {"sequence": "ACCAGGAT", "binding signal": 0.151}, {"sequence": "AAGCTGTA", "binding signal": -0.309}, {"sequence": "AATGGATG", "binding signal": -0.203}, {"sequence": "ACGGAACC", "binding signal": 0.101}, {"sequence": "ATCCTACA", "binding signal": 0.195}, {"sequence": "GACGTAAA", "binding signal": -0.108}, {"sequence": "GATTTACC", "binding signal": -0.0312}, {"sequence": "ATCGTGGC", "binding signal": -0.0687}, {"sequence": "CAACGTCA", "binding signal": -0.17}, {"sequence": "TACAGGGA", "binding signal": -0.123}, {"sequence": "AGGTGTGA", "binding signal": 0.41}, {"sequence": "CTCAGACC", "binding signal": -0.26}, {"sequence": "CGCATCGA", "binding signal": 0.163}, {"sequence": "CATCACAA", "binding signal": -0.116}, {"sequence": "GAGACATA", "binding signal": -0.172}, {"sequence": "CGCTCTGA", "binding signal": 0.0151}, {"sequence": "CAGGTGCC", "binding signal": 0.0486}, {"sequence": "CCGCGGCG", "binding signal": 0.0607}, {"sequence": "CGTAGGCA", "binding signal": -0.0289}, {"sequence": "CGCCTATC", "binding signal": 0.0681}, {"sequence": "AGTTAACA", "binding signal": 0.14}, {"sequence": "AGGATGAT", "binding signal": 0.0135}, {"sequence": "AGTTGATC", "binding signal": 0.106}, {"sequence": "AGATCTTC", "binding signal": -0.0134}, {"sequence": "CATGCGTC", "binding signal": -0.162}, {"sequence": "AGTCTCGC", "binding signal": -0.15}, {"sequence": "GGAATCCA", "binding signal": -0.0217}, {"sequence": "AGTTGCAC", "binding signal": 0.208}, {"sequence": "CGTGATTC", "binding signal": -0.185}, {"sequence": "TATATTCA", "binding signal": -0.0305}, {"sequence": "AGTTTTAC", "binding signal": -0.0911}, {"sequence": "AAGCTTTC", "binding signal": -0.188}, {"sequence": "AACGGAGT", "binding signal": 0.152}, {"sequence": "CAACGATA", "binding signal": -0.139}, {"sequence": "AGCTTAGA", "binding signal": 0.0635}, {"sequence": "AGGGGAGA", "binding signal": -0.164}, {"sequence": "CCGGTGGA", "binding signal": 0.0977}, {"sequence": "GTCAAGGA", "binding signal": 0.148}, {"sequence": "ATCAAGCA", "binding signal": -0.139}, {"sequence": "AACTGAGA", "binding signal": -0.0668}, {"sequence": "CAGACCTA", "binding signal": -0.227}, {"sequence": "CACATTTA", "binding signal": 0.0273}, {"sequence": "CTAACCAC", "binding signal": 0.0865}, {"sequence": "GAACGGAA", "binding signal": -0.14}, {"sequence": "CCTTCTAA", "binding signal": -0.108}, {"sequence": "ATTTTTGC", "binding signal": -0.143}, {"sequence": "GACTACAA", "binding signal": -0.117}, {"sequence": "GGATATCA", "binding signal": -0.0403}, {"sequence": "GCAAGGCC", "binding signal": -0.235}, {"sequence": "GGAGGCGA", "binding signal": -0.0896}, {"sequence": "GGGAGACC", "binding signal": 0.00473}, {"sequence": "ACTACGTA", "binding signal": -0.181}, {"sequence": "ATCACAGA", "binding signal": 0.0524}, {"sequence": "TCGGGCCA", "binding signal": -0.0257}, {"sequence": "AACCGGAG", "binding signal": -0.0204}, {"sequence": "CGCTCGTC", "binding signal": -0.127}, {"sequence": "ACAGACAC", "binding signal": 0.392}, {"sequence": "AGTAAATC", "binding signal": -0.036}, {"sequence": "ACGATAAT", "binding signal": -0.113}, {"sequence": "ATTCGATA", "binding signal": -0.0559}, {"sequence": "CATGAGAA", "binding signal": -0.123}, {"sequence": "CGAGCGCC", "binding signal": 0.103}, {"sequence": "CCTGTTAA", "binding signal": 0.0373}, {"sequence": "ATCTTGCC", "binding signal": -0.214}, {"sequence": "CACAAGAG", "binding signal": 0.0597}, {"sequence": "ATTTATTA", "binding signal": -0.127}, {"sequence": "GTTGATAA", "binding signal": 0.038}, {"sequence": "CTCTGACA", "binding signal": 0.143}, {"sequence": "GGTCTACA", "binding signal": 0.143}, {"sequence": "CGCTCCCC", "binding signal": -0.127}, {"sequence": "GAGGGCAA", "binding signal": -0.078}, {"sequence": "CGTCCCAA", "binding signal": -0.197}, {"sequence": "ATGCTCCC", "binding signal": -0.196}, {"sequence": "CGACCACG", "binding signal": -0.23}, {"sequence": "CAGAGCAC", "binding signal": 0.19}, {"sequence": "TACGCAAA", "binding signal": -0.073}, {"sequence": "GCCCCATA", "binding signal": -0.0822}, {"sequence": "ACCTCTAA", "binding signal": -0.126}, {"sequence": "TGGCATAA", "binding signal": 0.152}, {"sequence": "ACCGGGCG", "binding signal": 0.197}, {"sequence": "CTCTCTGA", "binding signal": 0.0838}]}]}
